Assay results taken from article PMC4336329 (PLoS ONE, 2015).
The whole screen tested about 310,000 compounds, of which about 2,200 (0.71%) showed an effect of 50% or more. Effects have a minus sign here. This is one part of the list.

Target: human ether-à-go-go-related gene (hERG) potassium channel (human, UniProt Q12809)
Assay: primary screen, population patch clamp on CHO cells stably expressing hERG

Chain of human ether-à-go-go-related gene (hERG) potassium channel (Q12809 whole entry, looked up): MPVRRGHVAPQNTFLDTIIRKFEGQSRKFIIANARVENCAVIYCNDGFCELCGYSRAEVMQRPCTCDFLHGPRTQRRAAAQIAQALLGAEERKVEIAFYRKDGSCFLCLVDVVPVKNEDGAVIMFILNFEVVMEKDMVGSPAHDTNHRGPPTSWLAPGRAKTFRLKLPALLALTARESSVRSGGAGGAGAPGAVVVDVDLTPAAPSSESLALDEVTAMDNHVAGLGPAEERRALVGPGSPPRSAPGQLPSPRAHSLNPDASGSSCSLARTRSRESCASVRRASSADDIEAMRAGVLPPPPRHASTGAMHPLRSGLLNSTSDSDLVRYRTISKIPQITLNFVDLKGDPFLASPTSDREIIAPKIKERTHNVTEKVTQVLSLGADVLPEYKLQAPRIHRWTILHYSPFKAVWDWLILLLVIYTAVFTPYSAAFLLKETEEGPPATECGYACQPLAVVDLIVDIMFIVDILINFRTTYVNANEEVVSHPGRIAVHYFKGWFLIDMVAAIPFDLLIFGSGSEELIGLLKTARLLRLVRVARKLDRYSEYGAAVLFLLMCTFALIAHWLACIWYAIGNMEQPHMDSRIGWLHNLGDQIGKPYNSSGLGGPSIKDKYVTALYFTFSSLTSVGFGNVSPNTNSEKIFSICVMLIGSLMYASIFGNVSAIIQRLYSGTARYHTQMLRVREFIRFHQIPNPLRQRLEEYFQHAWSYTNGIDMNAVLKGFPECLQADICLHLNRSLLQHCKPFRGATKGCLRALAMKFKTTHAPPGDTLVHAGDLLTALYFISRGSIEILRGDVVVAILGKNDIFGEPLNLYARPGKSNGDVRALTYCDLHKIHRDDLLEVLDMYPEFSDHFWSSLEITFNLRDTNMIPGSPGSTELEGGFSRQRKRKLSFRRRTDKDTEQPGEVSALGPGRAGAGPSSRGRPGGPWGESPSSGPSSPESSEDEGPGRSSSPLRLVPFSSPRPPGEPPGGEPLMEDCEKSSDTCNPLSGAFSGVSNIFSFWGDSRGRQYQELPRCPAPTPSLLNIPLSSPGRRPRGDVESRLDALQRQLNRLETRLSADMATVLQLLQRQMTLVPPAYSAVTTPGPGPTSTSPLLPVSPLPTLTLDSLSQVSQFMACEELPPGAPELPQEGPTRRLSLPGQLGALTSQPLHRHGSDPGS

| Structure (SMILES) | hERG current change (%, negative = inhibition) at 1uM [%] |
| --- | --- |
| CCOC(=O)c1c(C)[nH]c(NC(=O)N2CCOCC2)c1C | 16.1 |
| CCOC(=O)C1CCN(Cc2c(C(=O)N3CCOCC3)nc3c(C)cccn23)CC1 | 6.59 |
| CC(C)(C)c1ccc(-c2n[nH]c(=S)n2CC2CCCO2)cc1 (centres unmarked) | 8.12 |
| CCC(C)c1ccccc1NC(=O)COC(=O)c1ccc(N2CCCC2)c([N+](=O)[O-])c1 (centres unmarked) | 11.1 |
| Cc1ccc(S(=O)(=O)N2CCOCC2)cc1NC(=O)c1cccc(S(=O)(=O)N2CCCC2)c1 | 14.5 |
| O=C(NC1CCCC1)C(c1ccncc1)N(Cc1ccccc1)C(=O)Cc1cccs1 (centres unmarked) | 0.145 |
| Cc1nn(-c2ccccc2)c(Cl)c1C(=O)OCC(=O)NCCc1ccccc1 | 2.73 |
| CC(C)CN(C(=O)COc1ccc(Br)cc1C=O)C1CCS(=O)(=O)C1 (centres unmarked) | 5.44 |
| COc1ccc(OC)c(NC(=O)C2CCN(S(=O)(=O)c3ccc4c(c3)OCCO4)CC2)c1 | 4.48 |
| Cc1cccc(NC(=O)CCCN2C(=O)c3cccc4cccc(c34)C2=O)c1 | 5.28 |
| COCCn1nnnc1CN(CCc1ccccc1)Cc1cc2cc(OC)ccc2[nH]c1=O | -17.6 |
| CCOC(=O)Cc1nnc(NC(=O)C(CC)Sc2nncn2C)s1 (centres unmarked) | 11.5 |
| CCN(CC(=O)Nc1ccc2c(c1)OCCO2)C(=O)CC(NC(C)=O)c1ccccc1 (centres unmarked) | 16.6 |
| CC1=CC(C)C2COC(c3ccc[n+](C)c3)C1C2C.[I-] (centres unmarked) | 13.2 |
| O=C(c1cccs1)[C@@H]1[C@@H]2C(=O)N(Cc3ccc4c(c3)OCO4)C(=O)[C@@H]2C2c3ccccc3C=CN21 (some centres unmarked) | -12 |
| O=c1oc2ccccc2c2[nH]ccc12 | 14.5 |
| COCCCNC(=O)CN(c1cc(Cl)cc(Cl)c1)S(C)(=O)=O | 8.12 |
| COc1ccccc1NC(=O)c1cc2ccccc2o/c1=N\O | 3.06 |
| CS(=O)(=O)c1ccc(Cl)c(NC(=O)CCNC(=O)c2ccco2)c1 | -6.6 |
| COc1ccc(C(=O)N(C)C2CCN(C)CC2)cc1S(=O)(=O)Nc1cc(Cl)ccc1Cl | 3.04 |
| CC/C(=N\NC(=O)Cc1ccc(Br)cc1)c1cccs1 | 12.5 |
| CC1=CC(C)C(COC(N)=O)(COC(N)=O)C(C)C1 (centres unmarked) | -8.66 |

| Structure (SMILES) | hERG current change (%, negative = inhibition) at 1uM [%] |
| --- | --- |
| O=C(N/N=C/c1c(Cl)cccc1Cl)c1ccccc1F | 7.76 |
| O=C(O)c1cc(-c2cccc([N+](=O)[O-])c2)n[nH]1 | 7.75 |
| CC1=C(C(=O)N2CCOCC2)C(c2cc(C)ccc2C)NC(=S)N1 (centres unmarked) | 13 |
| COc1ccc(C2N3CC4(C)CN2CC(C)(C3)C4O)cc1 (centres unmarked) | 6.46 |
| Cc1cc(C)cc(NC(=O)C2CCCN(c3nc(C)cc(C)n3)C2)c1 (centres unmarked) | 7.41 |
| CS(=O)(=O)Cc1ccc(C(=O)NC2CCN(Cc3ccccc3)C2)cc1 (centres unmarked) | 13 |
| O=C(Nc1ccc2c(c1)OCO2)C1CC(c2ccc(F)cc2)=NO1 (centres unmarked) | 13.3 |
| CCOC(=O)C1(O)CC(C)=NN1C(=O)c1cccc(Br)c1 (centres unmarked) | 14.2 |
| O=C1/C(=C\Nc2ccc(OC(F)(F)F)cc2)CCN1c1ncccn1 | 0.643 |
| CCN(CC(=O)NCc1ccc2c(c1)OCO2)S(=O)(=O)c1ccc(F)cc1 | 10.6 |
| Cc1cccc(NC(=O)c2ccc(-c3ccccc3[N+](=O)[O-])o2)c1 | 0.181 |
| CS(=O)(=O)ON=C1CCN(S(=O)(=O)c2ccccc2)CC1 | 15.2 |
| COc1ccc(CNC(=O)C(OC(=O)c2ccco2)c2ccc(OC)cc2)cc1 (centres unmarked) | 5.97 |
| Cc1cccc(N=C2NC(=O)/C(=C3/C(=O)N(C)c4ccccc43)S2)c1C | 3.5 |
| COCCNC(=O)C(c1ccc(F)cc1)N(C(=O)CCC(=O)Nc1nccs1)c1cccc(C)c1 (centres unmarked) | 11.1 |
| Cc1ccccc1NC(=S)NC(C)CCc1ccccc1 (centres unmarked) | 11.9 |
| CC(C)(C)C(=O)C(Cl)C(=O)Nc1ccccc1 (centres unmarked) | 11.2 |
| O=C(COC(=O)CNS(=O)(=O)c1c(F)cccc1F)NC(=O)NC1CCCCC1 | -4.45 |
| COc1ccc(CNc2cc(NCCCO)c([N+](=O)[O-])c3nonc23)cc1 | 12.2 |
| Cc1cccc(C)c1NC(=O)[C@@]1(CC(=O)O)CC(/C=C/c2ccccc2)=NO1 | 10.7 |
| CCOc1ccc(/C=N/NC(=O)Nc2ccccc2)cc1 | 12 |
| COc1cc2c3c(c1)/C(=C1/SC(=S)NC1=O)C(=O)N3C(C)(C)C=C2C | 4.66 |
